In ChEMBL document CHEMBL4888484, “Replenishing the malaria drug discovery pipeline: Screening and hit evaluation of the MMV Hit Generation Library 1 (HGL1) against asexual blood stage Plasmodium falciparum ,using a nano luciferase reporter read-out” (2022):
About 540 (0.36%) of roughly 150,000 compounds showed an effect of 50% or more. The list shows a part of the results.

Each compound was assayed on Plasmodium falciparum (assay: Primary screen in NF54 nanoGlo assay, in single point, at 2uM, 72h; a lower Z score goes with more inhibition). Conditions: timepoint 72 hour.
Assay type: functional, Erythrocyte

| Compound | % Inhibition | Z score |
| --- | --- | --- |
| CCCN(CCC)S(=O)(=O)NCc1nc2c([nH]1)CCCC2 | 15% | -1.96 |
| CCc1nsc(N2C[C@H](c3cnn(C)c3)C(C)(C)C2)n1 | 1% | -0.14 |
| CCCN(CC#Cc1ccccc1)Cc1ccc(O)c(C(=O)O)c1 | -14% | 2.1 |
| Cc1cc(C(=O)N2CCN(CC(=O)Nc3ccncc3)CC2)on1 | 1% | -0.08 |
| CCc1ccc(CNC(=O)c2cnn3c4c(cnc23)C(=O)CC(C)(C)C4)cc1 | -16% | 2.26 |
| CC[C@@H](C(=O)N(C)CCC1CCOCC1)n1cccn1 | -19% | 2.07 |
| O=C(COc1ccccc1)Nc1nnc(-c2ccco2)o1 | -11% | 1.81 |
| Cc1ccc(CN2C[C@H]3CN(Cc4ccc(C#N)cc4)CCN3C2=O)cc1 | 11% | -1.8 |
| Cn1ccnc1CN1CCC[C@@](O)(CNS(=O)(=O)c2cccs2)CC1 | 36% | -4.56 |
| CN(Cc1ccc(C(F)(F)F)nc1)CC1(CO)CCCC1 | -2% | 0.29 |
| c1ccc(N2CCCC2)c(-c2nc([C@H]3CCOC3)no2)c1 | -21% | 2.24 |
| C=CCCS(=O)(=O)N1CCC[C@H](c2nncn2C2CC2)C1 | -4% | 0.58 |
| COc1cc(CN2CC(Oc3ccc(-c4noc(-c5ccncc5)n4)cc3)C2)cc(OC)c1 | -12% | 2.27 |
| Cc1ccc(-c2ccc(CNCc3cnc4n3CCCC4)o2)cc1 | 1% | -0.07 |
| CC(=O)NCc1ccc(N2CC[C@H](c3cccc(Cl)c3)C2)nc1 | -10% | 2.06 |
| O=C(NCCc1nc2ccccc2[nH]1)N[C@@H]1CCc2cc(F)ccc21 | -8% | 1.44 |
| COc1cc(Cl)c(CN2CCC3(CC2)C[C@@H]3C(=O)N2CCN(c3ccccc3)CC2)cc1OC | -1% | 0.08 |
| Cc1nc(CNC(=O)[C@H](C)n2ccnc2C)n(C)c1C | -7% | 1.23 |
| Cc1ccc2nc(C)n(C3CCN(C(=O)C(C)C)CC3)c2c1 | -14% | 2.71 |
| CC(C)Cc1ncc(C(=O)Nc2csc(C(N)=O)c2)s1 | -15% | 2.43 |
| Cc1nccc(N2CCC[C@@]3(CCC(=O)N(CCc4c[nH]cn4)C3)C2)n1 | 9% | -1.6 |
| O=C(O)C1(C(=O)N2CCN(Cc3cc(Br)ccc3F)CC2)CCC1 | -12% | 1.16 |

| Compound | % Inhibition | Z score |
| --- | --- | --- |
| Fc1ccc(-c2cnc3n2C[C@H](CNCCc2ccccc2)OC3)cc1 | 21% | -2.4 |
| CC(NC(=O)C1CCCN1c1ncnc2sccc12)c1ncon1 (stereo not given) | -5% | 0.65 |
| CC(C)C[C@@H](CC(=O)O)NC(=O)c1ccc(O)c(Cl)c1 | -4% | 0.81 |
| Cc1cc(N[C@H]2CCO[C@@H]2c2cnn(C)c2)nc(C)n1 | -13% | 1.72 |
| Cc1ccccc1C(=O)NCC(=O)N(C)[C@@H](CO)C(C)(C)C | 21% | -3.12 |
| CCCN(CC(=O)N1CCn2cccc2[C@H]1c1cccc(Oc2ccccc2)c1)C(=O)Nc1ccc(C(F)(F)F)cc1 | 13% | -1.18 |
| O=C(CNC(=O)NCCOc1ccc(F)c(F)c1)NC1CC1 | -15% | 2.08 |
| CC(=O)N1CCC(C(=O)Nc2cccc(S(=O)(=O)N3CCCC3)c2)CC1 | 0% | 0 |
| C=CCN1C[C@H](C)N(C(=O)c2cccc(-c3cc(C)nc(C)c3)c2)C[C@@H]1C | -3% | 0.64 |
| CCc1ccc(S(=O)(=O)N2CCC3(CCc4nnc(COC)n4CC3)CC2)cc1 | -4% | 0.35 |
| O=C(NC[C@H]1Cn2ccnc2CO1)c1ccc(Cl)cc1 | -15% | 1.89 |
| CC(NC(=O)c1cn(C(F)(F)CO)nn1)C1CC2CCC1C2 (stereo not given) | -3% | 0.37 |
| COc1ccc(NC(=O)c2ccc3c(c2)CCCC3)cc1S(=O)(=O)N1CCCCC1 | -36% | 4.24 |
| O=C(N[C@H]1CCCOC1)c1cccs1 | 1% | -0.12 |
| CCCC[C@H](CC)C(=O)Nc1ccncc1 | 7% | -1.07 |
| Cn1nc(C(=O)NC2CC2)c2c1CN(S(=O)(=O)Cc1ccccc1)C2 | -13% | 1.68 |
| Cc1ccc(-c2ccc(C(=O)NCCc3n[nH]c(=O)n3C)cc2)c(C)n1 | -5% | 0.65 |
| Fc1ccc(CC[C@H]2CCCN(CCc3ccccn3)C2)c(F)c1 | -11% | 1.08 |
| CC(C)Cc1cc(CNC(=O)Nc2ccnn2Cc2cccc(F)c2)no1 | 1% | -0.09 |
| O=S(=O)(NCCn1nccn1)c1ccccc1 | -9% | 1.33 |
| CN1CCCC(CNC(=O)Nc2nncs2)C1c1cccs1 (stereo not given) | -3% | 0.48 |
| CN(C[C@H]1CCS(=O)(=O)C1)c1cnn(C)c1 | 12% | -1.21 |

| Compound | % Inhibition | Z score |
| --- | --- | --- |
| COc1ccc(C(=O)N2CC(Nc3ncccn3)C2)cn1 | -14% | 2.12 |
| C[C@H](OC(=O)c1noc2c1CCCC2)c1ccccn1 | -12% | 2.22 |
| Cc1ccc(C(=O)Nc2nccnc2C(=O)N2CCC(Cc3ccccc3)CC2)cc1 | -15% | 2.23 |
| COc1ccccc1[C@@H]1NC(=O)NC(C)=C1C(=O)N1CCc2[nH]cnc2C1 | -8% | 1.12 |
| CCCCNC(=O)Cc1noc(C2CC2c2cccnc2)n1 (stereo not given) | -1% | 0.14 |
| O[C@H]1[C@H](NCc2ccccc2)[C@@H](c2cccnc2)C[C@H]1O | 2% | -0.33 |
| C[C@]1(CO)CCCCN1CC(=O)NCCc1ccc(S(N)(=O)=O)cc1 | 7% | -0.85 |
| O=C1C2C3C=CC([C@@H]2C(=O)N1c1ccccc1)C31CC1 (stereo not given in full) | -2% | 0.34 |
| Cc1ccc(-c2cnc3ccc(F)cc3c2)cn1 | -11% | 1.36 |
| CCOc1cc(C(=O)N[C@H]2CCCN(CCOC)C2)n[nH]1 | -8% | 1.1 |
| Cc1ccc(CN(C)CC[C@H]2CCCCO2)cc1F | -13% | 2.06 |
| O=C(NCCCOC(F)F)NCc1ccccn1 | 0% | 0.05 |
| CNC(=O)c1c(F)cccc1Br | -11% | 1.71 |
| N#Cc1ccc(CNC[C@H](O)C2CCCCC2)cc1 | 3% | -0.39 |
| O=C(N[C@@H](CCO)c1ccco1)c1cc(Cn2cccn2)on1 | 36% | -4.05 |
| CC[C@]1(N2CCN(S(=O)(=O)c3ccc4c(c3)CCCC4)CC2)CCN(C(=O)C(C)C)C1 | -5% | 0.46 |
| O=C(CN1N=C(c2nc(-c3ccccc3)no2)CCC1=O)Nc1ccc(Cl)c(Cl)c1 | 29% | -3.24 |
| COCCN(C)c1ccc(CNc2nncn2-c2ccccc2)cn1 | -7% | 1.06 |
| COc1ccc(OC)c(-c2cc(CN(Cc3ccco3)C(=O)c3ccc(Cl)cc3)no2)c1 | -14% | 2.29 |
| CCN(C(=O)CN1CCO[C@@H](CN(C)C)C1)C1=CCCCC1 | -7% | 1.04 |
| CCS(=O)(=O)N1CC[C@H](c2ncc(C)n2Cc2ccccc2)C1 | -5% | 0.75 |
| O=C(NC1=CC=CN=CO1)Nc1ccccc1 | -2% | 0.42 |

| Compound | % Inhibition | Z score |
| --- | --- | --- |
| Cc1[nH]c2c(C)cccc2c1CN1CCC[C@@](CO)(Cc2ccccc2F)C1 | -12% | 1.49 |
| CCOC(=O)N[C@@H](CNCc1c(C)cc(C)cc1C)C1CC1 | 6% | -0.65 |
| O=C(Nc1ccc(F)cc1Nc1ccccc1F)c1cc[nH]c(=O)c1 | -1% | 0.16 |
| CC(C)(C)OC(=O)N1CCC(c2n[nH]c3c2COCC3)CC1 | -7% | 1.08 |
| C[C@H]1CCCN1C(=O)CCN1CCN(c2ncnc3sccc23)CC1 | -8% | 1.29 |
| Cc1ccc(C#N)c(N2CCC[C@H](C(=O)N3CCOC4(CCCCCC4)C3)C2)n1 | -11% | 2.04 |
| Cc1cnc(CNS(=O)(=O)c2ccc(OCC(F)F)cc2)o1 | -7% | 0.91 |
| CCC1CN(Cc2cnc(C3CC3)nc2)CC(C)S1(=O)=O (stereo not given) | -1% | 0.12 |
| COc1ccc(OC)c(CNc2nccc(N(C)C)n2)c1 | -7% | 0.57 |
| CCNC(=O)N1CCc2nc(N3CCN(c4ccc(C)cc4)CC3)nc(N(C)C)c2C1 | -2% | 0.29 |
| C=Cc1cccc(-c2cc(-c3ccccn3)nc(N)c2C#N)c1 | -7% | 1.26 |
| O=S(=O)(c1cccc2cccnc12)N1C[C@@H]2CCCN2c2cc(C(F)(F)F)ccc21 | -10% | 1.53 |
| CC(C)[C@@]1(O)CN(c2nccs2)C[C@@H]1C | -6% | 1.19 |
| CCOc1ccc(N2C[C@@H](c3nnc(NC(=O)Cc4ccc(OC)cc4)o3)CC2=O)cc1 | 2% | -0.23 |
| FC(F)(F)c1cc(NCc2nnc3n2CCCCC3)ccn1 | -12% | 1.26 |
| Cc1cc(N(C)C(=O)[C@H]2CCC(=O)N(c3cccc(F)c3)C2)ccn1 | -6% | 0.88 |
| O=C(CN1C(=O)NC2(CCCC2)C1=O)c1ccc(OC(F)F)cc1 | -4% | 0.57 |
| CCCNC(=O)N1CCOC[C@H](Oc2ccc(C(F)(F)F)cn2)C1 | 15% | -1.71 |
| Cc1ccc(NC(=O)[C@H]2CCCN(c3cc(=O)n(C)c(=O)n3C)C2)cc1 | -4% | 0.59 |
